# From the supplement of paper PMC11417369
# ± gives the standard deviation of the averaged measurements. The list shows a part of the results.
# Tested on: PfAP2-EXP AP2 domain (GST-tagged)
# Assay: gcPBM binding intensity (ln(normalized median fluorescence intensity)); higher = stronger DNA binding
# Procedure, shortened: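 Probes on an Agilent 4 × 180k array were primer-extended, double-stranded and 36 bp long, taken from intergenic genomic regions, with negative controls added. GST-tagged P. falciparum DNA-binding domains from E. coli, about 25 μg on average, were applied to the array for 1 h in 1× PBS containing 1% milk, 0.2 mg/ml BSA, 0.5% salmon testes DNA and 0.03% Triton X-100. Binding intensity, obtained after Alexa488 anti-GST antibody detection and a 488 nm scan, is the highest Masliner-normalised natural-log median intensity across replicate spots of either probe orientation.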
row,Sequence,gcPBM binding intensity (ln)
1,ATACACTTAATATTATGTACATATATAAAAAAAATA [XGTACX_site1500],8.57 ± 0.42
2,AGGAATATCGAAAACTGTACTTGTATGTTTCATAAA [XGTACX_site6143],8.46 ± 0.43
3,TATAAAAATAATATTACACACATGTAAAATGGGGGT [CACACA_site9071],9.38 ± 0.29
4,AATTGTATGTATGCCTGTACATATGTCTATCTTAAG [XGTACX_site1927],8.55 ± 0.42
5,ATTTATTTATTTTTTTGTACTTATAATTTTTATTAT [XGTACX_site2656],8.7 ± 0.44
6,TATTTTATATGAGGCACACAAATTTTAATTGTTATT [CACACA_site725],8.18 ± 0.33
7,TGAATTATAAATTATAGTACTTTATAATATGAACAT [XGTACX_site2317],8.4 ± 0.36
8,ATATATAATAAATACACACACATGTATTTATAAATA [CACACA_site5135],8.34 ± 0.33
9,ATATAAATAAATTAGTGAAAAAAAAAAAATTTTTTT [CACACA_negctrl_site945],8.43 ± 0.52
10,AATTAACAAAGACACACACACACACGCACAAAAAAA [CACACA_site6388],8.54 ± 0.16
11,TTTAAAAAAATATATACACACATATATATATATATA [CACACA_site617],10.1 ± 0.38
12,CTCCATATGAAACACACACACAAATGAAAAAAATAT [CACACA_site3018],8.88 ± 0.61
13,ATAGAAATAAAATAAAATAAAAAAAAAATAATGAAA [CACACA_negctrl_site1565],8.64 ± 0.43
14,ATGATCATAAGACACACACACAAAAAAAAAAAAAAA [CACACA_site6936],8.22 ± 0.45
15,CATATATATATATATTGTACAAGATTGTTTTTTTAT [XGTACX_site3913],8.76 ± 0.35
16,TCTGTGCACGCATGAAGTACAAAAAAGGTTTCCAGT [XGTACX_site5049],9.19 ± 0.18
17,TATATTTTTTTAATATGTACATATATATATAAAACA [XGTACX_site2171],8.57 ± 0.13
18,CTATATACTAAATGCACACTTATATATTTATATATA [CACACA_site2454],8.47 ± 0.13
19,TAATTTTTTTTTTTTTTTTTTTTTTTTTTTTTCCTT [CACACA_negctrl_site1095],7.8 ± 0.61
20,GGAATAATATAAAACACACACATAAATATAAATATA [CACACA_site3376],8.81 ± 0.35
21,ATGAACAAAATGTAATGTACGAATAATTATTCATAT [XGTACX_site4812],8.61 ± 0.3
22,TTTTATTCCTATTTATTTATATTTTTGTCTTATATC [CACACA_negctrl_site125],8.8 ± 0.43

row,Sequence,gcPBM binding intensity (ln)
1,TTAAGAATATCTACATGTACATACCAAAGAAATACA [XGTACX_site3125],8.78 ± 0.43
2,TAATTTTTATTTATAATAATATATGACATATATCCA [XGTACX_negctrl_site359],8.1 ± 0.35
3,AAAAAAAAGTTCTACACACACAAAAAAATATTTTTT [CACACA_site2309],8.48 ± 0.59
4,TATAGACAAACACATACATGCATACATACATACATA [TGCATGCA_site273],8.93 ± 0.35
5,GTGTGCTTTTTACGAGTGCAAGTATTTTGGTGGTTA [GTGCAC_site9496],8.98 ± 0.099
6,GTACACATATAATATACACACAACAAATATGCACAT [CACACA_site1010],8.94 ± 0.3
7,TTATAATAAGATTGTTGTACTTATATTCCTTCTATA [XGTACX_site3173],8.66 ± 0.33
8,AATACATATTCAAAGGTGCAAAATAAAAATATACAT [GTGCAC_site9743],9.49 ± 0.099
9,TCGTTTCATATTTATCATGAGATAATCACACGAACA [TGCATGCA_negctrl_site497],8.41 ± 0.22
10,TAGTTATAAGAGTTACAAAGAATACCGGAAATATAG [CACACA_negctrl_site1829],8.94 ± 0.54
11,TGTTTTGTATATATAGCATGCAGTAAGGGAAAAAAA [TGCATGCA_site652],9.84 ± 0.46
12,AATGTCAATTTTAATAGTACACAAATATATATATAT [XGTACX_site521],9.84 ± 0.34
13,AATGACCATTTTTAAAATTACAAATACATACAACTG [TGCATGCA_negctrl_site420],8.47 ± 0.34
14,AAGTATTATTATAAGACACACATGTATTTAAGTATA [CACACA_site4922],8.41 ± 0.23
15,AAAATATAATATAATGCACACATAAACAAAAAAAAA [CACACA_site8161],8.72 ± 0.3
16,TTTTATTTAACTCATAATTTTTTAAAAAACAATTAT [XGTACX_negctrl_site19],8.34 ± 0.32
17,TTTTTTTTTTTTTTGGGTACATAATAATAACAAGTG [XGTACX_site1034],8.28 ± 0.32
18,CATGTAATATTAAACACACACTCATATAACTCAATA [CACACA_site4212],8.28 ± 0.47
19,CACATATACTTCTGTGCACACGAATATTTTTCTTCT [CACACA_site1408],9.05 ± 0.12
20,TTAACATTATATGAAGGTACAGAAAAAAAAAAATTA [XGTACX_site8530],8.35 ± 0.31
21,TTTCTTATAGATTTTAATCCTCTATCAAAAAAAGAA [GTGCAC_negctrl_site162],8.06 ± 0.49
22,AAATAAAAAAAATTTGCACACCTTCAAAGTAATATA [CACACA_site1583],8.46 ± 0.35

row,Sequence,gcPBM binding intensity (ln)
1,CATACAGTATTATACTGTACCCATACAAAAAAATAT [XGTACX_site6130],8.86 ± 0.45
2,TTTTTAATATTCTATGCATGCATCGCATATTTGGTT [TGCATGCA_site1004],9.47 ± 0.21
3,CTTATTTAAGAGTATGAACACACATCATACACATAT [CACACA_site9205],8.45 ± 0.43
4,TCTGTAAAGTAATGGACACACAATATATCCATTTAT [CACACA_site1536],8.35 ± 0.35
5,TTTCATTGGTTTATAAAATTATGAGATCTTAAAGAC [CACACA_negctrl_site1484],8.31 ± 0.32
6,GAATAATATGGACATACACACATATACATACAGATA [CACACA_site5200],8.64 ± 0.44
7,ATATATATATATATATGTACATATATTTATATTTAT [XGTACX_site6179],9.99 ± 0.42
8,GCTACGTAAAAAATATGTACATATGAAATATTTTGC [XGTACX_site5111],8.68 ± 0.55
9,TTATATATCTATAATACACACATAATAATATATTTA [CACACA_site7423],8.18 ± 0.36
10,AAATGAGAAGAAATACGTACATATAATAAAATAATT [XGTACX_site4439],8.83 ± 0.45
11,ATACATATATAAATACGTACATATATAATTATATAT [XGTACX_site8178],8.55 ± 0.3
12,ATGCATAAATTTTGAAGTACAAAAAAAAAAAATAAA [XGTACX_site7282],8.71 ± 0.26
13,TATATCTGTAAATGCACACATATGTGGATATACTTA [CACACA_site5013],8.71 ± 0.16
14,TGCTACATTCTATGTACACACATATACATATATATA [CACACA_site893],8.52 ± 0.19
15,TCTAATAATATATACACACACATATATATTTATATA [CACACA_site2032],8.31 ± 0.42
16,TATAAATATAAATACACACACATATAGATTATAGAT [CACACA_site6429],8.69 ± 0.42
17,GTTCATTCATTTTAATGTACAAATTTAACTTTTTCT [XGTACX_site680],8.47 ± 0.36
18,TAAGACATGATATATACACACCTTGTTTTAATTTTC [CACACA_site5282],8.44 ± 0.39
19,AGAAATTATAAATACCTACACACTTATCAAAATAAA [CACACA_site2264],8.43 ± 0.48
20,GATAAAGTAAAAATATGTACATATATATTTTAAGTT [XGTACX_site6439],8.56 ± 0.3
21,CATACACCCATACATACACACATACATACACCCATA [CACACA_site5124],8.67 ± 0.47
22,TCTTTTCAATTATCCTATATTCTTTTATTTTTAATT [GTGCAC_negctrl_site326],8.65 ± 0.35

row,Sequence,gcPBM binding intensity (ln)
1,ATATCTAAATATATTACACACAGATATCTTCCTATA [CACACA_site3701],8.71 ± 0.4
2,AACAAATAAAGCTATGACATGTTAAAATTGTTTCAC [XGTACX_negctrl_site67],8.66 ± 0.52
3,ATTCGTATGAGCATAACACACAATATCGATATTTCT [CACACA_site4165],8.67 ± 0.35
4,AGAGAAAAATATTTGGACAAAAATAATATAATATAT [CACACA_negctrl_site656],8.67 ± 0.4
5,ATAAAGGAATTTTATACACACAACATATAAATATAT [CACACA_site7365],8.53 ± 0.37
6,TTACGAATTACATATTGTACATATGCACAATTTTAA [XGTACX_site6802],8.54 ± 0.28
7,AATTAAAATACAAATGTATGCATGTCTCATATAGAA [TGCATGCA_site822],8.41 ± 0.36
8,TACATAATTTAAAATTTTATAAGTTGTAATTCGTTT [XGTACX_negctrl_site308],8.21 ± 0.49
9,TATTTATAAAAAGATTGTACATTTTTTATTATTGTA [XGTACX_site6016],8.19 ± 0.36
10,ATAAAACAACAAAGAAAATGAAAAAGTAAAAACATA [CACACA_negctrl_site596],8.89 ± 0.45
11,AGTGCATACATGAATTGTACTTTAAAATAAATTCTA [XGTACX_site8156],8.53
12,TATACAAAATATTTTACACACACATATATATACATA [CACACA_site2616],8.81 ± 0.71
13,CATTATTTATTTTAATGTACTTATTTTTAAATTGGT [XGTACX_site8038],8.62 ± 0.45
14,AAAAAAAAAAAAAAAACACACATATATCTATAATAT [CACACA_site6665],8.46 ± 0.26
15,TCCTATAATAACGTCACACATTAAATTTAATAAATT [CACACA_site4506],8.57 ± 0.37
16,TTATTTACAACTTCAAATTATGTGTAATACTACTAT [CACACA_negctrl_site741],8.47 ± 0.4
17,AAATATTATGTACGCACACACATTTTTAATATATAA [CACACA_site3851],8.71 ± 0.23
18,TAAAAAAAAACTCATGCACACAATATTATGAAAAAG [CACACA_site665],8.77 ± 0.44
19,AGCACATTATTCAAAAGTACAAATAGGTATTGTATA [XGTACX_site6107],8.34 ± 0.28
20,TTTTTTTCTTTTTACATACACACAAAAAAATAAAAT [CACACA_site580],8.47 ± 0.39
21,TTGTTAATATGATAAAAGAGGAATATTCTCTTCCTA [GTGCAC_negctrl_site659],8.02 ± 0.38
